The campaign covered roughly 390,000 compounds. About 910 (0.23%) were called active. Not shown: some 5% with an inconclusive outcome. Calls follow the shape of the dose curve; as a rule, active = well fitted inhibition curve with a large enough effect; inconclusive = small, poorly fitted or top-dose-only effect; inactive = no such curve, though single readings can be large or run the other way. This is a selection; strong and weak results do not stand in their true shares.
% is scaled to controls: 0 for no effect and ±100 for the full control effect; potency is read from the fitted curve at half-maximal effect.

Sequence of UniProt O94782 (O94782 whole entry, looked up): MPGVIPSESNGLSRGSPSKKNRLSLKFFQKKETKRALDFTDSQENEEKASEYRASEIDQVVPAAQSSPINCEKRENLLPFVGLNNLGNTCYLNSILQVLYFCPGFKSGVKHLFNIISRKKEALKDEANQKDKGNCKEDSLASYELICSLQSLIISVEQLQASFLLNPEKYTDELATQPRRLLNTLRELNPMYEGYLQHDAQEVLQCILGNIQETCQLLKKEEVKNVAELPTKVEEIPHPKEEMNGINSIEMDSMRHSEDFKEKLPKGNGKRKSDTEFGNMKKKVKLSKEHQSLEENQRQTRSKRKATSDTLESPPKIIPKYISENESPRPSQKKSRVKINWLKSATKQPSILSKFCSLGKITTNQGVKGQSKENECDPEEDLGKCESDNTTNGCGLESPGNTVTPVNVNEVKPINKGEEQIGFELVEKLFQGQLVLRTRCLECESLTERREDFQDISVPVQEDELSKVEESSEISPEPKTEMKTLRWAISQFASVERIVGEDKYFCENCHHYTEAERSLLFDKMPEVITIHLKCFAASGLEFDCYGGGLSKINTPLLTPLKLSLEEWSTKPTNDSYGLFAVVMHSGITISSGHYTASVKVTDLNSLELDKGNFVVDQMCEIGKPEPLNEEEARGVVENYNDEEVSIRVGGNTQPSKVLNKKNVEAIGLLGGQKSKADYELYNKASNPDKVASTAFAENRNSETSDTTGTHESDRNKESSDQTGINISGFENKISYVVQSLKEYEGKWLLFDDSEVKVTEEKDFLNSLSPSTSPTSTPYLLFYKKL

This experiment concerns the target Ubiquitin carboxyl-terminal hydrolase 1 (Homo sapiens) (UniProt O94782). Description: Inhibitors of USP1/UAF1: Primary Screen. Also: nearly all actives have a fitted effect of over 60% in size. Particulars: recombinant USP1/UAF1, Ub-Rhodamine cleavage fluorescence; activity change, negative = inhibition: at 57.1 µM (top of the series). From the text:
Deubiquitinating enzymes (DUBs) are a class of enzymes that can cleave isopeptide bond formed between the C-terminal carboxylate of ubiquitin and a lysine side-chain amino group on the target protein. Among them, ubiquitin specific proteases (USPs) constitute the largest DUB family. Human USPs are emerging as promising targets for pharmacological intervention because of their connection to a number of human diseases, including prostate, colon and breast cancer (1, 2), pediatric acute lymphoblastic leukemia (3), and familial cylindromatosis (4). The advantage of inhibiting USPs lies in the potential specificity of therapeutic intervention that can lead to better efficacy and reduce nonspecific side effects. In a collaboration between the University of Delaware and the NIH Chemical Genomics Center, a high-throughput screen assay was developed to screen for USP1/UAF1 inhibitors. This miniaturized assay has a fluorescent read-out and is used to screen the NIH Molecular Libraries Small Molecule Repository (MLSMR) in order to identify a small molecule that inhibits USP1. NIH Chemical Genomics Center [NCGC] NIH Molecular Libraries Probe Centers Network [MLPCN] MLPCN Grant: DA030552 Assay Submitter (PI): Zhihao Zhuang, University of Delaware 1. Priolo, C., et al. (2006) The isopeptidase USP2a protects human prostate cancer from apoptosis. Cancer Res 66, 8625-8632 2. Popov, N., et al. (2007) The ubiquitin-specific protease USP28 is required for MYC stability. Nat Cell Biol 9, 765-774 3. De Pitta, C., et al. (2005) A leukemia-enriched cDNA microarray platform identifies new transcripts with relevance to the biology of pediatric acute lymphoblastic leukemia. Haematologica 90, 890-898 4. Kovalenko, A., et al. (2003) The tumour suppressor CYLD negatively regulates NF-kappaB signalling by deubiquitination. Nature 424, 801-805
3 microliters of reagents (buffer in columns 3 and 4 as negative control and 1nM USP1/UAF1 complex in columns 1, 2, and 5-48) are dispensed into Greiner black solid bottom 1536-well assay plates. Compounds are then transferred via Kalypsys pin tool equipped with 1536-pin array (10nl slotted pins, V&P Scientific, San Diego, CA). Following an incubation step of 15 min at room temperature, 1ul of Ub-Rho substrate (150nM final concentration) is added to initiate the reaction. The plates are immediately centrifuged at 1000 rpm for 15 seconds, and subsequently transferred to a ViewLux high-throughput CCD imager (PerkinElmer) wherein kinetic measurements of fluorescence are acquired using 480 nm excitation/540 nm emission filter set (6 reads every 60 seconds, see Table 1). All reagents are diluted in an assay buffer consisting of 50mM HEPES (pH 7.8), 0.5mM EDTA, 0.1 mg/ml BSA, 1mM TCEP, and 0.01% Tween-20.
For the compound `COc1ccc([C@H]2C[C@@H](n3cc(COC(=O)c4ccccc4)nn3)[C@H](O)CN2C(=O)c2cccs2)cc1`, the “activity change, negative = inhibition” value is inactive: -16.1%.
Still for that read-out and setting: the figure for `COCCn1c(=N)c(C(=O)NCc2ccco2)cc2c(=O)n3cc(C)ccc3nc21` is inactive: -15.8%.
Same read-out and setting: the figure for `CCc1ccc(/C=C2/SC(=S)N(CCCC(=O)Nc3ccccc3C(=O)O)C2=O)cc1` is inactive: -19.1%; for `CCc1ccc(CN(C(=O)c2cc(=O)c3ccc(C)cc3o2)C2CCS(=O)(=O)C2)cc1` (centres undefined) it is inactive: 47.4%; for `COC(=O)C1=C(C(=O)OC)[C@]2([C@@H]3CCCCN[C@@H](Cc4ccccc4)C(=O)N3Cc3ccccc3)C=C[C@H]1O2` it is inactive: -27.9%.
Still for that read-out and setting: the figure for `C[C@@H]1CN([C@@H](C)CO)C(=O)CCCn2nncc2CO[C@H]1CN(C)S(=O)(=O)c1ccc2c(c1)OCCCO2` is inactive: 3.22%.
Turning to `O=C1C=C(NCCc2cc(Br)c(O)c(Br)c2)C(=O)c2ncccc21`, the Potency was active: 3.55 µM.
Take `CC(=O)c1sc2nc(-c3cccs3)cc(C(F)(F)F)c2c1N`: the “activity change, negative = inhibition” value was inactive: 271%.
Still for that read-out and setting: the figure for `CN(C)c1ccc(CNS(=O)(=O)c2csc(C(N)=O)c2)cc1` is inactive: -8.27%; for `NC1=NC[C@@H](Cc2ccc(O)cc2)N1CCC12CC3CC(CC(C3)C1)C2` it is inactive: -15.9%; for `CCOC(=O)c1cc2c(c(CCO)n1)[C@@H](CCO)N(S(=O)(=O)C(C)(C)C)C2` it is inactive: -16.5%.
Same read-out and setting: the figure for `C=CC[C@@H](CC(=O)OC(C)(C)C)C(=O)OC[C@@H]1CCCN1C(=O)[C@@H](CC=C)CC(=O)N[C@H](CO)Cc1ccccc1` is inactive: -23.5%.
On the same count and under the same terms, the figure for `O=C(C[C@@H]1C/C=C\C[C@H](Cc2ccc(F)cc2)C(=O)OC[C@@H](Cc2c[nH]c3ccccc23)NC1=O)NCCO` is inactive: -22%.
Regarding `CCc1cc[n+](C2=C([O-])c3ccccc3C(=O)/C2=N\S(=O)(=O)c2cccs2)cc1`, the Potency is active: 17.8 µM.
On the same count and under the same terms, the figure for `CC(=O)Nc1cccc(C(=O)/C=C/c2ccc(N(C)C)cc2)c1` is active: 5.62 µM.
Regarding `CC1(C)O[C@H]2CC(=O)OCC23[C@H]2CC[C@@]4(C)[C@H](c5ccoc5)OC(=O)[C@H]5O[C@]54[C@]2(C)C(=O)C[C@@H]13` (some centres undefined), the “activity change, negative = inhibition” value was inactive: -12%.
Same read-out and setting: the figure for `O=C(Nc1ccc(F)c(F)c1)c1ccc(F)c(S(=O)(=O)N2CCC3(CC2)OCCO3)c1` is inactive: -28%; for `Cc1ccc(-n2nc(CO)c(C(=O)NC(C)c3ccccc3)n2)cc1C` (centres undefined) it is inactive: 21.4%; for `C=CC[C@H](CC(=O)N(CCO)Cc1ccccc1)C(=O)N[C@@H](COC(=O)[C@H](CC=C)CC(=O)OC(C)(C)C)Cc1c[nH]c2ccccc12` it is inactive: -16.2%.
Regarding `C[n+]1c(-c2ccccc2)cc2c(=Cc3ccccc3)c3ccccc3n21`, the Potency was active: 3.98 µM.
Take `C=CC[C@@H](CC(=O)NCCO)C(=O)N[C@@H](C)COC(=O)[C@@H](CC=C)Cc1ccc(F)cc1`: the “activity change, negative = inhibition” value is inactive: -29.4%.
Turning to `Cc1ccc(Cn2ccnc2SCC(=O)NC2CCCC2)cc1`, the “activity change, negative = inhibition” value was inactive: 0.453%.
Take `CCOc1ccc(CNC(=O)C2CCN(c3nnc(-n4c(C)ccc4C)s3)CC2)cc1`: the “activity change, negative = inhibition” value is inactive: -22.4%.
For the compound `CCOC(=O)N1CCc2c(sc3c2c(=O)n(Cc2ccccc2)c(=O)n3Cc2cccc(C)c2)C1`, the “activity change, negative = inhibition” value is inactive: -18.9%.
Still for that read-out and setting: the figure for `CCc1ccc(CNC(=O)Cn2nc(-c3ccc(C)cc3)ccc2=O)cc1` is inactive: 27.4%; for `CC(C)OC(=O)N(C)C[C@H]1OCc2cnnn2CCCC(=O)N([C@H](C)CO)C[C@H]1C` it is inactive: 9.14%.
Turning to `COCCCNC(=O)c1ccc2c3c(onc13)-c1ccccc1C2=O`, the Potency was active: 20 µM.
For the compound `CCOC(=O)N(C)C[C@@H]1OCc2cnnn2CCCC(=O)N([C@H](C)CO)C[C@H]1C`, the “activity change, negative = inhibition” value is inactive: -14.4%.
On the same count and under the same terms, the figure for `CCCCN(CCCC)c1nc2ccccc2nc1C(C#N)C(=O)NCCCOC` (centres undefined) is inactive: 103%; for `COc1ccc(NC(=O)CN2C(=O)COc3ccc(S(=O)(=O)N4CCCCC4)cc32)cc1OC` it is inactive: -17.5%.
For `COCCN1C=C2C(=O)C(C)(OC(=O)CCC(=O)OC)C(=O)C(Br)=C2C=C1c1ccc(OC)cc1` (centres undefined), the Potency is active: 25.1 µM.
As for `COc1ccc(OC)c(S(=O)(=O)NCCS(=O)(=O)N2CCN(c3ccccc3)CC2)c1`, the “activity change, negative = inhibition” value is inactive: -5.01%.
On the same count and under the same terms, the figure for `Nc1ccn([C@H]2C[C@H](O)[C@@H](CO)O2)c(=O)n1` is inactive: -24.1%; for `CCCCC(CC)CNC(=O)CCCCn1c(=O)[nH]c2ccsc2c1=O` (centres undefined) it is inactive: -6.07%; for `CCN(CC)S(=O)(=O)c1ccc2c(c1)c(=O)c(C(=O)NCCc1ccccc1)cn2C` it is inactive: -20.2%.
Regarding `Cc1[nH]cnc1CN1CCc2c(c3ccccc3n2C)C1=O`, the Potency is active: 35.5 µM.
For `Cc1c(Cl)cccc1NC(=S)/C(=C(\[O-])c1ccc(Cl)s1)[n+]1ccccc1`, the “activity change, negative = inhibition” value is inactive: -4.46%.
On the same count and under the same terms, the figure for `CCc1nc2ccc(C(=O)N3CCN(c4cc(C)ccc4C)CC3)cc2nc1CC` is inactive: -2.16%.
For `CCN(CC)c1ccc(N=C2C(=O)Nc3ccccc32)cc1`, the Potency is active: 31.6 µM.
For `COc1ccc(-n2nc3c(N4CCC(C(=O)NC5CCCCC5)CC4)nnc(C)c3c2C)cc1`, the “activity change, negative = inhibition” value was inactive: -24.6%.
The same measure, in the same setting: the figure for `Nc1nc(SCC(=O)N2N=C3/C(=C/c4ccco4)CCCC3C2c2ccco2)n[nH]1` (centres undefined) is inactive: -24.5%; for `C=CC[C@H](CC(=O)N(CCO)Cc1ccccc1)C(=O)N[C@@H](COC(=O)[C@@H](CC=C)CC(=O)OC(C)(C)C)Cc1c[nH]c2ccccc12` it is inactive: -26.2%.
As for `CCOc1ccc(C2C(C#N)=C(N)SC(N)=C2C#N)cc1OCC`, the Potency was active: 31.6 µM.
For the compound `C[C@@H]1CN([C@H](C)CO)C(=O)CCCn2cc(nn2)CO[C@H]1CN(C)S(=O)(=O)c1ccc2c(c1)OCCCO2`, the “activity change, negative = inhibition” value was inactive: -10.2%.
For `COC(C/C=C/C(=O)[C@H](C)OCc1ccccc1)OC`, the “activity change, negative = inhibition” value was inactive: -20.8%.
Regarding `COC(C[C@@H]1O[C@@H]1[C@@H](O)[C@@H](C)OCc1ccccc1)OC`, the “activity change, negative = inhibition” value was inactive: -22.1%.
Same read-out and setting: the figure for `COc1cc(/C=N/NC(=O)c2ccncc2)ccc1O` is inactive: -29.3%; for `CC(C)(C)OC(=O)C[C@H]1C/C=C\C[C@H](CC(=O)N[C@@H](CO)Cc2ccccc2)C(=O)N[C@H](C(C)(C)C)COC1=O` it is inactive: -23.4%.
Consider `COC(=O)CCC(=O)OC1(C)C(=O)C2=CN(C3CC3)C(c3ccc(OC)cc3)=CC2=C(Br)C1=O` (centres undefined), for which the Potency is active: 22.4 µM.
`Cc1cc(C)n2c(Nc3ccc4c(c3)OCCO4)c(-c3ccccc3)nc2n1`: the “activity change, negative = inhibition” value is inactive: -18.8%.
Same read-out and setting: the figure for `Oc1ccc(C[C@@H]2CNCCN2CCc2cccc(F)c2)cc1` is inactive: -23.8%.
Regarding `CN(C)CCC(c1ccc(Br)cc1)c1ccccn1` (centres undefined), the Potency entry is “inactive”.
As for `CCOC(=O)C1CCN(c2cc3c(cc2NC(=O)c2ccccc2Cl)n(C)c(=O)n3C)CC1`, the “activity change, negative = inhibition” value was inactive: -23.6%.
On the same count and under the same terms, the figure for `O=C1N[C@@H](Cc2ccccc2)C(=O)N2[C@H]1C[C@]1(Br)c3ccccc3N(S(=O)(=O)c3ccc(F)cc3)[C@H]21` is inactive: -18.3%.

Source of the values: PubChem BioAssay AID743255 (National Center for Advancing Translational Sciences (NCATS), 2014).
